Data reported in PMC4336329 (PLoS ONE, 2015).
Hit rate of the full screen: of about 310,000 compounds, about 14,000 (4.5%) showed an effect of 50% or more. Effects have a minus sign here. The list shows a part of the results.

Target: human ether-à-go-go-related gene (hERG) potassium channel (human, UniProt Q12809)
Assay: primary screen, population patch clamp on CHO cells stably expressing hERG
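Note: peak tail current of the secondary pulse compared with the same well before compound.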

Chain of human ether-à-go-go-related gene (hERG) potassium channel (Q12809 whole entry, looked up): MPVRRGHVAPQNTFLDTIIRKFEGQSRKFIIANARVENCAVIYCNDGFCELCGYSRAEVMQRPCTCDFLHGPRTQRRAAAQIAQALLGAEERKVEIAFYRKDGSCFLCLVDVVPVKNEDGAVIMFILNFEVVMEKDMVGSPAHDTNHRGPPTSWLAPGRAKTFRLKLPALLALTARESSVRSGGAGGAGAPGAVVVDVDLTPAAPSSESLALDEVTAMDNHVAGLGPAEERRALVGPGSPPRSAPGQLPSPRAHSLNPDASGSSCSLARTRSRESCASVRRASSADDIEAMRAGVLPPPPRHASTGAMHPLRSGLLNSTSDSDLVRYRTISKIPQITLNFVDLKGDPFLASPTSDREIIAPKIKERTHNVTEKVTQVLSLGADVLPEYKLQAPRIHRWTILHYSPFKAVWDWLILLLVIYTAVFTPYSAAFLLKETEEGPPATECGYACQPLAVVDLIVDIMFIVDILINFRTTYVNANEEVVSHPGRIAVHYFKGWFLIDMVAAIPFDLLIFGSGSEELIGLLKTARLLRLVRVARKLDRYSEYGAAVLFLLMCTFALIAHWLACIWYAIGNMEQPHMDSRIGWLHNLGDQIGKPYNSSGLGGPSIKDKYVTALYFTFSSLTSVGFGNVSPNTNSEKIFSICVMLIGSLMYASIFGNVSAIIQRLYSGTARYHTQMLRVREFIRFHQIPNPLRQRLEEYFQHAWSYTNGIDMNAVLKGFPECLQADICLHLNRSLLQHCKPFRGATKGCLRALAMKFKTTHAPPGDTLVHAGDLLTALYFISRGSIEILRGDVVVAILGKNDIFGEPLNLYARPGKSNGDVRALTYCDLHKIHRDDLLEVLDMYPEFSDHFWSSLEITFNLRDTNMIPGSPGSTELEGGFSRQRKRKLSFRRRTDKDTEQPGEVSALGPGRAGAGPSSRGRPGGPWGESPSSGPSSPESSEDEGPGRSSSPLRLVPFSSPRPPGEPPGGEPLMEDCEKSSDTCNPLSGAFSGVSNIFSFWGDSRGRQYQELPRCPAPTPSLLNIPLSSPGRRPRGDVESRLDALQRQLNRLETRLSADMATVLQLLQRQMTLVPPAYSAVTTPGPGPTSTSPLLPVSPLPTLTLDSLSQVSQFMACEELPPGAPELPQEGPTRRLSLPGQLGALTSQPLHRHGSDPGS

Structure (SMILES) | hERG current change (%, negative = inhibition) at 10uM [%]
C[C@H]1C(=O)O[C@@H]2CCN3CC=C(COC(=O)[C@](C)(O)[C@]1(C)O)[C@H]23 | -7
O=C(COc1cccc(OC(F)F)c1)Nc1ccc(SC(F)F)cc1 | -29.4
COc1ccc(-c2csc(N3C(=O)C4C5c6ccccc6C(c6ccccc65)[C@@H]4C3=O)n2)cc1 (stereo partly shown) | 19.4
Cc1ccc(OCCCC(=O)Nc2nnc(C3CCCO3)s2)c(C)c1 (stereo not shown) | 20.6
Cc1ccc(-c2nc3ccccc3c(C(=O)NCc3cccs3)c2C)cc1 | -5.33
OC(c1cc(-c2ccc(Cl)cc2)nc2ccccc12)C1CCCCN1 (stereo not shown) | -52.6
Cc1cc(C)n2nc(SCc3cccc(F)c3)nc2n1 | -3.78
COc1cc(C)nc(NC(=O)NC(=O)c2ccc(C(F)(F)F)cc2)n1 | 16
Cc1ncc(CO)c2c1OC(C)(C)OC2 | 13.6
O=C(O)/C=C/C(=O)Nc1ccc(Cl)cc1C(=O)c1ccccc1 | -7.6
Clc1ccc(-c2nnc3c4ccccc4nc(N4CCOCC4)n23)cc1Cl | -64.7
CCN1CCN(C(=O)CCN2C(=O)c3ccccc3C2=O)CC1 | -1.77
Cc1ccc2c(c1)N(CCC(=O)NC1CCCCC1)C(=O)CO2 | 25.3
Cc1nc(C)n(C(C)CNS(=O)(=O)c2ccc(C)c(C)c2)n1 (stereo not shown) | 17.5
Cc1cc(OCC(O)CN2C(C)CCCC2C)ccc1C(C)C (stereo not shown) | -32.4
COc1ccc(NS(=O)(=O)c2ccc(-n3nnc4ccccc43)c([N+](=O)[O-])c2)cc1 | -0.892
S=C(NCc1ccco1)NCC1CCCO1 (stereo not shown) | 5.04
CC(NS(=O)(=O)c1cccc(C(=O)NCc2ccncc2)c1)c1ccccc1 (stereo not shown) | -5.36
COc1ccc(CNCCC2(C(C)C)CCOC(C)(C)C2)cc1 (stereo not shown) | -11.4
CC1=NCCN1CCNC(=O)Nc1cc(C)cc(C)c1 | 15.6
CC1CCN(C2=NC(=O)/C(=C/c3ccccc3F)S2)CC1 | -25.2
CCOC(=O)CC(NC(=O)c1ccco1)c1ccccc1Cl (stereo not shown) | -4.55

Structure (SMILES) | hERG current change (%, negative = inhibition) at 10uM [%]
Cc1ccsc1C(=O)NNC(=S)NCC(C)C | 5.42
COc1cc2c(cc1OC)C(C)N(CC(=O)Nc1ccc(S(=O)(=O)N3CCCC3)cc1)CC2 (stereo not shown) | -14.1
Cc1ncc(CO)c2c1Oc1nc(-c3ccccc3)nc(SCC(=O)N3CCOCC3)c1C2 | 9.56
Cc1ccc(C(=O)C(C)Oc2ccc3ccc(=O)oc3c2)cc1 (stereo not shown) | -6.75
Cc1noc(C)c1C(=O)Nc1nc2ccc(F)cc2s1 | -9
CCc1nnc(NC(=O)CSc2nnc(C)n2CC2CCCO2)s1 (stereo not shown) | 5.75
COCCNC(=O)CSc1nc2nn(-c3ccccc3)c(=O)c-2c2n1CCCCC2 | 23.2
COc1ccc(CNC(=O)[C@H](NC(=O)C2CCN(C(=O)[C@@H](N)CCSC)CC2)C(C)C)cc1 | 2.54
Cc1ccc([N+](=O)[O-])cc1N1C(=O)CS/C1=N\NC(=O)c1cccnc1 | 25.6
CCCCNC(=O)C1CC(=O)N(CCc2ccccc2)C1 (stereo not shown) | 13.1
CC(=O)C(C(c1ccccc1)c1c[nH]c2ccccc12)[N+](=O)[O-] (stereo not shown) | 12.7
O=C(c1ccc(-n2cncn2)c([N+](=O)[O-])c1)N1CCN(S(=O)(=O)c2ccc(F)c(F)c2)CC1 | -72.7
CCOc1ccccc1N(CC(=O)N1CCC(C(N)=O)CC1)S(=O)(=O)c1ccc(SC)cc1 | 3.7
COc1ccc(N(CC(=O)NCCSC(C)(C)C)S(C)(=O)=O)c(OC)c1 | 5.64
COc1ccc(S(=O)(=O)n2oc(=O)cc2-c2ccccc2)cc1 | -2.17
COc1cc(CNC(C)(C)CO)cc(Br)c1OCc1ccc(Cl)cc1.Cl | -45.7
O=C(CCc1nc2ccccc2c(=O)[nH]1)OCC(=O)N1CCN(S(=O)(=O)c2ccccc2)CC1 | 0.376
COc1ccc(CCNC(=O)c2cc(COc3c(F)cccc3F)on2)c(OC)c1 | 1.77
CC1=NN(c2cccc(F)c2)C(=O)/C1=C/c1ccc(N(C)C)cc1 | 6.38
COc1ccc(-c2cc(-c3ccc(C)cc3)n[nH]2)c(O)c1 | 20.2
O=C(Nc1ccccc1)C1=C[C@@H](c2ccc(Br)cc2)C[C@@H](OCCCCO)O1 | 1.99
